We go through 57 sequences from the supplement of paper PMC11417369.

The list shows a part of the results.

The subject of the assay is PfSIP2 AP2 domain 1 (GST-tagged). Put plainly: gcPBM binding intensity (ln(normalized median fluorescence intensity)); higher = stronger DNA binding. A digest of the protocol:
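Each value is the highest Masliner-normalised natural-log median intensity across replicate spots of either orientation of a probe. The probes were primer-extended double-stranded 36-bp intergenic genomic sequences on an Agilent 4 × 180k array, alongside negative controls, exposed for 1 h to GST-tagged P. falciparum DNA-binding domains expressed in E. coli. Bound protein was picked up with Alexa488 anti-GST antibody and scanned at 488 nm.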
As to “ATATATATATATATTTATTCATATATTTTTTGTCTT [TGCATGCA_negctrl_site58]”, the “gcPBM binding intensity (ln)” value is 9.33.
Take “TAAAGAAACGCATCGACGCACACTACAAAATAAAAA [CACACA_site1348]”: the “gcPBM binding intensity (ln)” value turned out to be 6.93.
Under “TTTTTATTTTTTCAGTGTACATTTAAATTATCTTAT [XGTACX_site3905]” stands 6.98.
With “AAATAATTTATGCATACACACATATATATATATATA [CACACA_site4020]”, the “gcPBM binding intensity (ln)” value was 9.78.
“TTACTTTTTTTTTTATGTACTTATATTTTTTACACT [XGTACX_site3503]”: the “gcPBM binding intensity (ln)” value is 6.95.
With “TATGAATACATTTGTTGTACTTAAATTTCCTTTATT [XGTACX_site5374]”, the “gcPBM binding intensity (ln)” value was found to be 6.8.
Turning to “TATAAATATCTGAATTGTACAGGTGAAAAAAAAAAT [XGTACX_site1867]”, the “gcPBM binding intensity (ln)” value was 7.43.
Regarding “TTTTTTATTATTATTATTTTTTATGTATAATAATGT [CACACA_negctrl_site631]”, the “gcPBM binding intensity (ln)” value turned out to be 6.85.
Under “TAGATATATAAATACACACACATACACAAAAAAAAA [CACACA_site7652]” stands 6.98; under “AATATGTGAATATAATCACACACAATACGGAAACAC [CACACA_site8875]”, 8.19; under “AAAGAAGGATAATAATGTACAAGCAAAAAAATAAAA [XGTACX_site466]”, 7.
Under “AAATAATTATTTATCACACATATGTATTTATATATA [CACACA_site4589]” stands 7.1; under “CTTTTTTTAATGATAACACACATGTTGTGCATAGAC [CACACA_site3270]”, 8.
Turning to “ACATATATTTCAAAGTGTACGCACAATTTTTTTTAC [XGTACX_site6166]”, the “gcPBM binding intensity (ln)” value came out at 7.48.
In the case of “AACATATATATAATATGTACATAATATATATAAATG [XGTACX_site1161]”, the “gcPBM binding intensity (ln)” value came to 6.9.
Consider “TTAGTTTCCCAAATATGTACATAAATATAAATCATA [XGTACX_site2746]”, for which the “gcPBM binding intensity (ln)” value amounted to 7.19.
For the sequence “TTATTATTTTTTAACACACACATATATATTATATCT [CACACA_site4906]”, the “gcPBM binding intensity (ln)” value was 7.06.
Under “GTAAGAACACTTTTGTGGTTACTTAAAAGTGTATAT [GTGCAC_negctrl_site422]” stands 6.92.
Take “ATTTCAACAAATATAACACACAATGGATAAGAATAA [CACACA_site1974]”: the “gcPBM binding intensity (ln)” value came to 7.13.
“TGCTTATATGTTGTTACACACTAAAATAGTTAGATA [CACACA_site1277]”: the “gcPBM binding intensity (ln)” value was 7.09.
For “AATACAGTTAGAGAAAGTACACAACTAATATACATA [XGTACX_site8814]”, the “gcPBM binding intensity (ln)” value is 7.27.
With “ATTTTGTTATGAAACACACACATATAAATATAAATA [CACACA_site7679]”, the “gcPBM binding intensity (ln)” value is 7.26.
For the sequence “AATACACGCAGACACACACACAAAAAAAAAAAAAAA [CACACA_site6384]”, the “gcPBM binding intensity (ln)” value amounted to 7.2.
Turning to “TATATAAAACATGGGTGTACCAACATAAATCATATA [XGTACX_site2320]”, the “gcPBM binding intensity (ln)” value was 6.88.
Take “AATTGTGCATTATATTGTACACGTGTTGTATATATT [XGTACX_site975]”: the “gcPBM binding intensity (ln)” value amounted to 8.21.
As for “TTGAATATGGTTACATGTACGTATCAATATTTTTTA [XGTACX_site4247]”, the “gcPBM binding intensity (ln)” value was 6.79.
“TATACATTATTATTATGTACTTAAATATATATTATA [XGTACX_site5173]”: the “gcPBM binding intensity (ln)” value stood at 7.11.
Under “ATTAACACATTTAAGTGTACATATATAAATATATAT [XGTACX_site7098]” stands 7.07; under “ATATAACTCAAGGGCACACATATACCTTTCCTTTTT [CACACA_site4390]”, 7.1; under “GGAACGTATATTTTCACACACTCTCAAAAGTACAAG [CACACA_site2301]”, 7.09.
Regarding “GAAACAAAATTATTTTGTACATATGACTGTAGATAT [XGTACX_site972]”, the “gcPBM binding intensity (ln)” value was determined as 7.11.
Turning to “TGTGCACGTTCTGTGACACACATTTAAATGTGCTTA [CACACA_site176]”, the “gcPBM binding intensity (ln)” value worked out at 10.7.
As to “ATATATATATATAGTTGTACTTAATTTTATATGTTA [XGTACX_site5256]”, the “gcPBM binding intensity (ln)” value came out at 9.28.
With “TATATTATTTATTAGACACACATTATTAAAATATTT [CACACA_site4737]”, the “gcPBM binding intensity (ln)” value was found to be 6.82.
Under “TGTTGTATATCTCTATATAGCTATATTGTATATATA [TGCATGCA_negctrl_site323]” stands 6.97.
“GTGAAATTATTTCCGTGTACACATAAATATATATTT [XGTACX_site3989]”: the “gcPBM binding intensity (ln)” value is 7.38.
“CCTTGATATATATAAAGTACATATATATATATATAT [XGTACX_site4325]”: the “gcPBM binding intensity (ln)” value is 9.9.
Consider “AAACTTATAAAAAGTAGTACCATAAAATAATACATA [XGTACX_site6523]”, for which the “gcPBM binding intensity (ln)” value came to 6.94.
Under “TTTTACAAATATTACTGTACACATTTTCATATAATT [XGTACX_site17]” stands 7.01; under “AAATAATACCAAATGTGTACTTATTTCACTAATAGA [XGTACX_site7571]”, 6.92; under “ATATATACTTATATTTGTACACAAAGGTATCTCTAG [XGTACX_site3805]”, 6.88.
As to “GGAATAATAAAATTATGTACATAAGAATCATATACT [XGTACX_site6810]”, the “gcPBM binding intensity (ln)” value turned out to be 6.98.
On to “AAAAAAAAAAATCGCTGTACTTCTAAAGGTGTGTTA [XGTACX_site843]”, for which the “gcPBM binding intensity (ln)” value was found to be 6.88.
Under “CAAACAAACGGACACACACACACACCCAAAAATGAT [CACACA_site5363]” stands 7.2; under “AGTTTTATATAAGCTTGTACTTAATATTATTAAGTA [XGTACX_site5919]”, 6.99.
As to “TTTGATAAATTATACACACACAATATATATAAAATA [CACACA_site2023]”, the “gcPBM binding intensity (ln)” value stood at 7.11.
For the sequence “ACGGACTTAAAATACACACACACCAAAAAAAAAAAA [CACACA_site7304]”, the “gcPBM binding intensity (ln)” value came to 7.19.
As to “AATAATATATAATAATGTACAAAAAAAAAAAAAAAA [XGTACX_site4158]”, the “gcPBM binding intensity (ln)” value was 6.98.
As to “AAGCTTTGGTGTTATGCATGCAATTAAACTATTAGT [TGCATGCA_site277]”, the “gcPBM binding intensity (ln)” value was found to be 7.16.
Consider “TTTTATTTTTTAGTAGTACACACTTTTTGTACCTTT [CACACA_site599]”, for which the “gcPBM binding intensity (ln)” value was determined as 7.04.
“TATTTTAATTAATATACACACGCTTATATATATATA [CACACA_site7909]”: the “gcPBM binding intensity (ln)” value turned out to be 9.02.
Take “TTTCTTTTTTTTTTTTGTACATATTTTAATTATTTT [XGTACX_site8676]”: the “gcPBM binding intensity (ln)” value worked out at 7.24.
Under “TATTATATATATAACTGTACGTTTATAATATAAAAA [XGTACX_site3778]” stands 7.45; under “TACAAACTATGATGCACACATATATATCTGTATCCA [CACACA_site4809]”, 7.24; under “AGTGTTAAAAATGAGGGTACATATAAAATACAGTTC [XGTACX_site457]”, 7.05.
Regarding “TAATCATTTTAGCTTACACACAAAATTTGGTTATAA [CACACA_site5604]”, the “gcPBM binding intensity (ln)” value is 6.85.
Under “ACAGGATTGGTTCAAACACACATATTATATGACTAT [CACACA_site4536]” stands 6.81.
